Source: the RNAGym collection of RNA variant scans (doi:10.7554/elife.90254)
Read counts are not given, so values of variants with three or more changes are uncertain.

B1: LINE1-full (parent)
chain: UACGUAGGUGGUUUUCCCCUGAUAGUGCUAAGGGGGCCUGGAAGUUUGGACUGGGCAGAGCUCAACACAGCGUGGCAAAGUGGCUGUGGCUAGACUGCCUCUCUGGAUUCCUCGUCACUCAGCAGGGCAUCUCUGAGAGAAAUGCC

Variants of: B1
Assay: self-cleavage, relative activity (ratio to wild type); higher = more cleavage; in vitro, sequencing; the parent is a self-cleaving ribozyme

| Variant | self-cleavage |
| --- | --- |
| C38A U87C A124C U134C | 0.2 |
| A22U A64G A67U U100A U143C | 0.08 |
| G4A A78G A142U | 0.84 |
| U14A U81A A140G | 0.61 |
| U5C U87A U102C A129U | 0 |
| U23C A31U U87C | 0 |
| U1C A2G U20A G32A G34U U100A A117G A138G | 0 |
| A77U A78G G139A A141G | 1.11 |
| A42U A69G U143A | 0.34 |
| C3U U20C C84G A94G U96A U119A A142G | 0 |
| U23C U81A G105A A136G | 2.85 |
| A30G G32A U46C U62C U109A | 0.24 |
| U20C U102C U115C G126A | 2.92 |
| A67U U104A A138G | 0.08 |
| U13C A94G U119C G125U G127A | 0.36 |
| U13C G54A U119C U130C | 1.44 |
| U12C U13C G27A C76U A107G U108C | 2.22 |
| U45C U52C A77U | 1.57 |
| U20A A57U U81C U134C | 0 |
| G70U U91A A107G A141G | 0.05 |
| C56G G114A A121U | 0.07 |
| U9A G27A A78G U130C | 1.07 |
| A64G U115C U119C | 0.42 |
| A42G A59G U73A | 0.17 |

| Variant | self-cleavage |
| --- | --- |
| U14C A57G A69G G137U | 0 |
| U5C G93U U96A U115A C120U | 0.08 |
| G21U G32A U45G A94G A107G | 0.29 |
| A6G A77G U104A A107U A124U | 1.6 |
| A22C U39C U47C A92U | 0.71 |
| U23C U45C A107G | 1.53 |
| U9G A77G A78G A142G | 0 |
| A6G C28G G82A | 1.11 |
| G10A A24U G53A | 1.62 |
| A43G U108A A138U | 1.1 |
| A50G U81C U96G A121U | 0 |
| U12G A50C A64U C99U U119A A121G | 0.32 |
| A2G G36C G55C A79G | 0.09 |
| U13C G40A U47C A57U | 0.1 |
| G10U A67U U87C A94G U109C | 0 |
| A24G A65C A142G | 0 |
| G58A A69U A107G | 0.03 |
| G11A G106A A129G | 1.77 |
| C19U A67G U73A A124U | 0.4 |
| U73A U85C U100C U104C C128U U132C | 0.58 |
| A79C U100C U112C | 0.84 |
| A69G A77G U108C | 0 |
| U96C U102C U132C | 0.73 |
| U12A U73C G74A G83C U85C A140G | 0.23 |

| Variant | self-cleavage |
| --- | --- |
| U45C U112C U115C | 1.15 |
| U12C A79G U108C U130C | 1.38 |
| A50G A78G U119C | 0.57 |
| U100C U130A U132C | 1.28 |
| A43G U52A C66U C84G | 0.16 |
| U47C C56A U112C | 0.04 |
| A42G A107U U132A | 1.53 |
| A6G U26A A43G U73C U85A | 0 |
| U15G U26A A50U U62A U100C A129C A142G | 0 |
| U20C G60A A64G U134C | 0.09 |
| U12C G60A G75A | 0.05 |
| U47C U81C U115A | 0.21 |
| A77U G93A U130A | 0.04 |
| A31U A64G C111U A140G | 0.29 |
| U26C A117G U130C | 2.95 |
| A64C A117G A141C | 0.4 |
| A79C U104A A129G | 0 |
| A64G U115A U130C | 0.3 |
| U45C C84A U143C | 0.18 |
| U9A A43G U62C A142G | 0 |
| U23A G82C A138U | 2 |
| U39C A42G U100C | 1.46 |
| U45C U52G U132A | 1.49 |
| A24U U52A A79G A124U | 0.25 |

| Variant | self-cleavage |
| --- | --- |
| U39A U52C A79G U115C A138G | 2.87 |
| U9C U109A A136G A142G | 1.19 |
| U12G U15A A78U U102A A129C A136G | 1.18 |
| U9G A31G G34A A107U A124G | 1.58 |
| U20C A22U G125A A138U | 1.77 |
| U15C U47C C51A | 1.27 |
| U9A U14C U20C U104C | 2.26 |
| U13C G54A A117U C123U | 0.47 |
| A50G A64U A121G | 0.92 |
| U15C U62A A92G A124U | 0.07 |
| A43G A77U A141G | 1.41 |
| U13C A43G U100C A129U U132C A142U | 1.53 |
| A65G A67G A141G | 0.27 |
| A24U G75U U115A A129U A140G | 0.57 |
| U29G U45C C63U G83C A94C | 0.61 |
| U9C A78C U108C | 2.92 |
| U20A U39A A69U | 0.09 |
| U85G U115A U119A A140G | 0.27 |
| A22U G135A A136C | 1.49 |
| A30G A50U U115C | 0.92 |
| U52A U62C C118A U130C U134C | 0.06 |
| U1C A43G A138U | 0.72 |
| U26C U62A U115G | 0 |
| U20A G32A U47C A79G U87C | 0.26 |

| Variant | self-cleavage |
| --- | --- |
| A22U C84U A121C | 0.1 |
| U12C U45A A67G G88A U100C U143A | 0.23 |
| U12G A57G A141G | 0.82 |
| G86A U102C U132C | 0.03 |
| A2U U14C U47C A78G | 1.01 |
| U20C G54A A136G | 1.03 |
| G40A U81A U115C U119C | 2.21 |
| A22G G88A C116U | 0.1 |
| G4A U14C U26A U96C | 0.1 |
| U20C U81G U102C U115A | 0.63 |
| U15C C17G A92U | 1.15 |
| U23C U108C G126A U132C | 1.87 |
| U12A U46A U115C | 1.87 |
| C3U A42G A94C U100C | 1.23 |
| U81C U132A A136G | 2.47 |
| U12A U15C A69G | 0.42 |
| U12C U20C C120U A140G | 2.27 |
| U62A A64U U81A | 0.19 |
| U23C A69G U100C A136G | 0.54 |
| U13G U115A A141G | 1.42 |
| U73C U132C A138G | 1.12 |
| A57U A67G G72A U100A U143C | 0.03 |
| A69U C76A A107G G139A | 0.02 |
| U23A A129G A141G | 1.55 |

| Variant | self-cleavage |
| --- | --- |
| A24G A79G G127A | 1.13 |
| U20C A59G A67U U112C U134C | 0 |
| C19A U102G C120U C128A A142G | 0.85 |
| U13A A30C A117U A141G | 1.15 |
| U14C A22G A124U A129U | 1.2 |
| A6G A136U A138U | 1.48 |
| U12G G27U U46C | 1.15 |
| U9C A79G C98A | 0.13 |
| G49U U102C U132C A138U | 1.33 |
| G72U U96A C110A | 0.05 |
| G21A U119A A136G | 0.82 |
| G32A A121U A138G | 1.52 |
| U62C U85A A107U | 0.03 |
| U20A A64G U96C A121G | 0 |
| U9A U14C U52G | 0.68 |
| A43U U46C A64G | 0.38 |
| U12G U13C U52C U115A A141G | 1.21 |
| A121U U132A A142G | 1.13 |
| G4U U14C A24C U143C | 0.47 |
| G32A U91C U100C | 1.09 |
| U14C C19U U62C | 0.1 |
| U12C G89A U100C | 0 |
| U13A U20C A30G U47C U85A U104C | 0 |
| U81A U85A U119G | 0.08 |

| Variant | self-cleavage |
| --- | --- |
| A65G A140G C145U | 0.07 |
| A50G A57U G83A U96A A107G U119C | 0 |
| A30G U46C U104A A117G | 0 |
| U13C U23C U109A A138G | 0.78 |
| U12A U14C A107G | 1.21 |
| A24G U52C U91C A140U | 1.1 |
| A31G A117U A124G | 1.17 |
| A50G U91A U100C A129U | 0.66 |
| U14C A69G U73C | 0 |
| G10U U20C U62C | 0.16 |
| G27A U45C U52C A67U | 0.07 |
| U9A G60U U87A A124U A140G | 0.07 |
| U9A A24G U45C U62C | 0.46 |
| C76U A77G U132A | 2.13 |
| A64G A107U U134A A141G | 0.16 |
| C3U U85G A142G | 0.37 |
| A6G U45C A50U C99U U130C | 0.09 |
| U62A U104C C116U U134A A138G | 0.03 |
| U12C A121G G122C | 2.3 |
| U20G U62A A64U U73A U96A | 0.05 |
| U12C U14A U62C U115C | 0.32 |
| U5C U81A U115A | 1.41 |
| U13C U47C A141G | 1.51 |
